For the experiment, the system named is NCI-H322M lung. In words: growth of human tumour cells (NCI), 48 h.

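Grown in 96-well plates, cells were treated for 48 hours with each compound at five concentrations. Insufficient inhibition: endpoint recorded as highest concentration tested. GI50 = concentration required for 50% inhibition of growth. At the TGI there is no net growth.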

As for `CS(=O)(=O)Nc1cc(-c2ccc3ncnc(Nc4ccc(OCc5cccnc5)c(Cl)c4)c3c2)cnc1Cl`, the GI50 was 2.28 µM and the TGI was found to be 9.29 µM.
For `CC1(C)CC[C@]2(C(=O)O)CC[C@]3(C)C(=CCC4[C@@]5(C)C[C@@H](O)[C@@H]6OC(c7ccccc7Br)OC[C@@]6(C)C5CC[C@]43C)C2C1` (stereo partly specified) the same measures were 2.93 µM and 37.7 µM.
For `Cc1cccc(NC(=O)[C@]23CCC(C)(C)CC2C2=CCC4[C@@]5(C)C[C@@H](O)[C@H](O)[C@@](C)(CO)C5CC[C@@]4(C)[C@]2(C)CC3)c1` (stereo partly specified), the GI50 was 15.9 µM and the TGI was found to be 36.3 µM.

The values are drawn from PubChem BioAssay (NCI).
